The values below come from the supplement of paper PMC4967469.

pIC50: −log10 of the molar value. Lines with a small IC50 respond at low doses; a fit beyond the top or the lowest dose is shown as a bound at that dose. AUC sums up the same curve from the lowest dose to the 256-fold higher top dose; the more sensitive the line, the further below 1. For some assays here: Any top dose called inferred was calculated from the reported fits. For some assays here: An entry number marks a drug with two screens in the source, which often give different values.

Common to all, as to experiment: Viability of human cancer cell lines after 72 h of drug (GDSC screen)
Compound in assay [1]: COc1cc(O)c2c(c1)/C=C/C[C@H](O)[C@H](O)C(=O)/C=C\C[C@H](C)OC2=O [(5Z)-7-Oxozeaenol]
Particulars: top dose 10 µM; top dose inferred. As for the experimental part: (§1)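 Human cancer cell lines in 384-well plates, medium with 10% serum, drug for 72 h over a 256-fold dose range (nine 2-fold or five 4-fold steps up to the top dose). Adherent lines were fixed and stained with the nucleic acid dye Syto60, suspension lines read with resazurin; signal relative to control wells, capped at 0 and 100%. One two-parameter sigmoid per drug and line, fitted in a mixed model over all curves with the slope shared within a line.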

Compound in assay [2]: Cc1ccc(F)c(NC(=O)Nc2ccc(-c3cccc4[nH]nc(N)c34)cc2)c1 [ABT-869]
As to conditions: top dose 1.024 µM; top dose inferred. As to the method:
as §1

Compound in assay [3]: C/C=C(/C)C(=O)O[C@H]1C(C)=C2[C@H]([C@@H]1OC(=O)CCCCCCC)[C@@](C)(OC(C)=O)C[C@H](OC(=O)CCC)[C@@]1(O)[C@H]2OC(=O)[C@@]1(C)O [Thapsigargin]
Particulars: top dose 0.512 µM; top dose inferred. As to the method:
as §1

Compound in assay [4]: COc1cc2ncnc(-n3nc(-c4ccccn4)nc3N)c2cc1OC [CP466722]
As to conditions: top dose 16 µM; top dose inferred. As to the method: as §1

Compound in assay [5]: Cc1cnc(-c2cnc(NCCNc3ccc(C#N)cn3)nc2-c2ccc(Cl)cc2Cl)[nH]1 [CHIR-99021]
As to the method: as §1

Compound in assay [6]: C=CC(=O)Nc1cc(-n2c(=O)ccc3cnc4ccc(-c5cn[nH]c5)cc4c32)ccc1C [QL-X-138]
Particulars: top dose 10.24 µM; top dose inferred. As for the experimental part: as §1

Compound in assay [7]: CCn1c(-c2nonc2N)nc2cnc(Oc3cccc(NC(=O)c4ccc(OCCN5CCOCC5)cc4)c3)cc21 [GSK269962A]
Particulars: top dose inferred. As to the method: as §1

Compound in assay [8]: COc1cc(N2CCC(O)CC2)ccc1Nc1cc(Nc2ccccc2S(=O)(=O)C(C)C)c2cc[nH]c2n1 [MPS-1-IN-1]
As to conditions: top dose 20 µM; top dose inferred. As to the method:
as §1

Compound in assay [9]: Cc1ccc(-c2c(C(=O)CCl)n(CCCO)c3ncnc(N)c23)cc1 [CMK]
Particulars: top dose 4 µM; top dose inferred. As to the method: as §1

Compound in assay [10]: COc1nc(C)cnc1NS(=O)(=O)c1cccnc1-c1ccc(-c2nnco2)cc1 [Zibotentan]
As to conditions: top dose 20 µM; top dose inferred. As to the method:
as §1

Compound in assay [11]: O=c1cc(-c2cccc3c2Sc2ccccc2S3)oc(N2CCOCC2)c1 [KU-55933]
As to conditions: top dose 10 µM. As to the method:
as §1

[12] abbreviates: top dose 2.56 µM, screen: GDSC drug entry 154.
The mark [13] stands for this setting: top dose 10 µM, screen: GDSC drug entry 1241, top dose inferred.
Setting [14] is: top dose 2.5 µM, screen: GDSC drug entry 127.
Setting [15] is: top dose 5 µM, screen: GDSC drug entry 1192.

Regarding COLO-829 (melanoma, adherent), the AUC in assay [1] stood at 0.699; in assay [2] it was 0.968; in assay [3], 0.427; in assay [4], 0.889; in [5] (setting [12]), 0.695; in assay [5] (setting [13]), 0.892. Moreover, the AUC in assay [6] came out at 0.747; in assay [7] (setting [14]), 0.793; in assay [7] (setting [15]), 0.974; in assay [8], 0.874; in [9], 0.976; in assay [10], 0.979. Also, the pIC50 in assay [1] was 5.52; in assay [2], < 5.99; in assay [3] it was 7.74; in assay [4] it was < 4.80; in assay [5] (setting [12]), 6.13; in assay [5] (setting [13]), < 5.00. Moreover, the pIC50 was 5.33 in assay [6]; 5.74 in [7] (setting [14]); < 5.30 in [7] (setting [15]); < 4.70 in [8]; < 5.40 in [9]; < 4.70 in assay [10].
ES3 (Ewing sarcoma, adherent): the AUC in assay [1] turned out to be 0.787; in assay [11] it was 0.928; in [2] it was 0.983; in assay [3], 0.317; in assay [4], 0.742; in assay [5] (setting [12]) it was 0.981. The AUC in [5] (setting [13]) was determined as 0.825; in assay [6] it was 0.502; in [7] (setting [14]), 0.973; in [7] (setting [15]), 0.783; in [8], 0.804; in assay [9] it was 0.96. Moreover, in assay [10], the AUC came to 0.983. In addition, the pIC50 in assay [1] was 5.34; in assay [11] it was < 5.00; in [2] it was < 5.99; in assay [3], 8.02; in assay [4], 5.29; in [5] (setting [12]), < 5.59. The pIC50 is 5.19 in assay [5] (setting [13]); 6.19 in [6]; < 5.60 in [7] (setting [14]); 5.65 in [7] (setting [15]); 4.97 in assay [8]; < 5.40 in assay [9]. Moreover, the pIC50 in assay [10] was < 4.70.
Take H-EMC-SS (chondrosarcoma, adherent): the AUC in assay [11] was determined as 0.981; in assay [2] it was 0.972; in assay [3], 0.348; in assay [4] it was 0.757; in assay [5] (setting [12]) it was 0.97; in [6] it was 0.781. For the same cell line, the AUC in assay [7] (setting [14]) was found to be 0.938; in [8], 0.727; in assay [9], 0.928; in assay [10] it was 0.969. Besides, the pIC50 in assay [11] was < 5.00; in [2], < 5.99; in assay [3], 7.97; in assay [4] it was 5.15; in assay [5] (setting [12]), < 5.59; in assay [6] it was 5.25. The pIC50 is < 5.60 in assay [7] (setting [14]), 5.17 in assay [8], < 5.40 in assay [9] and < 4.70 in assay [10].
On to HCC1599 (breast, suspension), for which the AUC in [2] worked out at 0.982; in assay [3] it was 0.69; in [4], 0.754; in assay [5] (setting [12]), 0.977; in assay [6], 0.525; in assay [7] (setting [14]), 0.949. For the same cell line, the AUC worked out at 0.837 in [8], 0.774 in assay [9] and 0.981 in assay [10]. In addition, the negative logarithm of the IC50 (pIC50) in assay [2] was < 5.99; in [3], 6.93; in [4] it was 5.21; in assay [5] (setting [12]) it was < 5.59; in [6] it was 6.12; in assay [7] (setting [14]), < 5.60. Also, the pIC50 in assay [8] was 4.79; in [9], 5.74; in assay [10] it was < 4.70.
As to “HCC-33 (small cell lung carcinoma, adherent)”, the AUC stood at 0.982 in assay [2]; 0.344 in assay [3]; 0.85 in [4]; 0.985 in assay [5] (setting [12]); 0.519 in assay [6]; 0.916 in assay [7] (setting [14]). The AUC stood at 0.914 in [8], 0.965 in [9] and 0.983 in assay [10]. For the same cell line, the negative-log IC50 (pIC50) was < 5.99 in [2]; 7.93 in assay [3]; 4.91 in [4]; < 5.59 in assay [5] (setting [12]); 6.14 in assay [6]; < 5.60 in assay [7] (setting [14]). Moreover, the pIC50 in assay [8] is < 4.70; in assay [9], < 5.40; in [10], < 4.70.
In the case of HCE-4 (oesophagus, adherent), the AUC came out at 0.599 in [1]; 0.988 in assay [2]; 0.217 in assay [3]; 0.919 in assay [4]; 0.992 in assay [5] (setting [12]); 0.991 in assay [5] (setting [13]). Also, the AUC in [6] is 0.992; in assay [7] (setting [15]), 0.859; in assay [8], 0.992; in assay [9] it was 0.891; in [10] it was 0.992. In addition, the pIC50 in assay [1] is 5.95; in assay [2] it was < 5.99; in assay [3], 8.25; in [4] it was < 4.80; in assay [5] (setting [12]), < 5.59; in assay [5] (setting [13]), < 5.00. Besides, the pIC50 is < 4.99 in assay [6]; 5.49 in assay [7] (setting [15]); < 4.70 in assay [8]; 5.46 in assay [9]; < 4.70 in assay [10].

As a reminder, the pIC50 is the negative decadic logarithm of the IC50, by convention in mol/L.
